According to article PMC4336329 (PLoS ONE, 2015):
About 14,000 (4.5%) of roughly 310,000 compounds showed an effect of 50% or more. The effect is printed as a negative number. This is one part of the list.

The compounds below were run against human ether-à-go-go-related gene (hERG) potassium channel (human, UniProt Q12809) (assay: primary screen, population patch clamp on CHO cells stably expressing hERG).
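Also: peak tail current of the secondary pulse compared with the same well before compound.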

Sequence of human ether-à-go-go-related gene (hERG) potassium channel (Q12809 whole entry, looked up): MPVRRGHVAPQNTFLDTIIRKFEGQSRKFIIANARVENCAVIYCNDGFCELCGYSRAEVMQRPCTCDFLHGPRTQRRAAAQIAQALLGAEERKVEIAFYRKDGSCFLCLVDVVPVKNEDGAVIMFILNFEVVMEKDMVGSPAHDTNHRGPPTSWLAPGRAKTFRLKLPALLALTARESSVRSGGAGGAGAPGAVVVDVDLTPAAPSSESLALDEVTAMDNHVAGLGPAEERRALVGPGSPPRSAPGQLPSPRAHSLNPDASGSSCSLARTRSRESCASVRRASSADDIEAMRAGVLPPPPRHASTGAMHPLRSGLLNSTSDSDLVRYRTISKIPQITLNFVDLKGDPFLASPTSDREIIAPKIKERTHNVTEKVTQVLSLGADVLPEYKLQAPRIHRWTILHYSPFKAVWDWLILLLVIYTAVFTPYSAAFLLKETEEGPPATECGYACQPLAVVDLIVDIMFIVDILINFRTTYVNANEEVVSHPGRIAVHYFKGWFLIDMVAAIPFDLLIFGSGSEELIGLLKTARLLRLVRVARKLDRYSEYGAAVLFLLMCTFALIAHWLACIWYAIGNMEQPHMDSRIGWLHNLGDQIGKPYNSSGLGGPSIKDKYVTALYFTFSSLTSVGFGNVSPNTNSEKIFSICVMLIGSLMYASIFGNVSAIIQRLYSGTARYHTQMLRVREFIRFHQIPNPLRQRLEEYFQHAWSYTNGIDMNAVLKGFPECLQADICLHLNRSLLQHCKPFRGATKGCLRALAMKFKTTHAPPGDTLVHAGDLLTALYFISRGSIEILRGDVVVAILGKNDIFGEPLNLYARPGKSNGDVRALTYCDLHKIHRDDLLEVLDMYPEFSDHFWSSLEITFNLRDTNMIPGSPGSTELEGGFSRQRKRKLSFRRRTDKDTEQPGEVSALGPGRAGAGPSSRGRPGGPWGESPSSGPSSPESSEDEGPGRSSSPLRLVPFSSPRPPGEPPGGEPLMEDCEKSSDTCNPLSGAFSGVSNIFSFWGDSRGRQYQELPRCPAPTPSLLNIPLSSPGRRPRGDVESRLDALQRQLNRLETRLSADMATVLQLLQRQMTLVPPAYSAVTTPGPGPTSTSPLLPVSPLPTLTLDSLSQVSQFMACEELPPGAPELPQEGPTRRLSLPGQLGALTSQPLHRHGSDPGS

Row | SMILES | hERG current change (%, negative = inhibition) at 10uM [%]
1 | O=C(CSc1nc2ccccc2c(=O)[nH]1)Nc1ccccc1C(F)(F)F | -2.68
2 | CN(C(=O)COC(=O)CNC(=O)c1sc2ccccc2c1Cl)c1ccccc1 | 0.791
3 | CC1CCN(S(=O)(=O)N2CCC(C(=O)N3CCC(N(C)CC4CCCO4)CC3)CC2)CC1 (centres unmarked) | -22.1
4 | O=C1CCCN1c1ccc(S(=O)(=O)Nc2cccnc2)cc1 | -3.53
5 | CCOc1ccc(CCNC(=O)COC(=O)/C=C/c2cccc(OC)c2)cc1OCC | -1.47
6 | CCOC(=O)C[C@H]1c2ccccc2S(=O)(=O)N1Cc1cccc(C(F)(F)F)c1 | -24.8
7 | CCOc1ccc(NC(=O)c2c(NC(=O)CNCCN3CCOCC3)sc3c2CCC3)cc1 | -69.3
8 | CCc1nc(SCC(=O)Nc2ccc(F)cc2F)c2c(=O)n(C)c(=O)n(C)c2n1 | 10.2
9 | CCOC(=O)CN(C(=O)c1snc(C(N)=O)c1N)C(C(=O)NC1CCCCC1)c1ccc(F)cc1 (centres unmarked) | -2.27
10 | Cc1cc(C)cc(NC(=O)c2nnn(Cc3cc(C)ccc3C)c2N)c1 | -5.28
11 | Brc1ccc(Oc2nnnn2-c2ccccc2)cc1 | -26.7
12 | COC(=O)c1noc(-c2ccc(OC)cc2)n1 | -2.85
13 | Cn1c(SCc2nc3ccccc3[nH]2)nnc1-c1ccccn1 | -8.29
14 | CCC(C)[C@H](NC(=O)NCC1CCCO1)C(=O)OC (some centres unmarked) | 19.1
15 | Cc1[nH]c2ccc(OC(F)(F)F)cc2c1CCNCc1ccc(Cl)cc1.O=C(O)C(=O)O | -34.5
16 | O=C(OCC(=O)N1CCN(C(=O)COC(=O)c2ccc(O)cc2O)CC1)c1ccc(O)cc1O | 18
17 | O=C(O)C1C2C=CC(C2)C1C(=O)NCc1ccco1 (centres unmarked) | 17.2
18 | O=C(CP(=O)(c1ccccc1)c1ccccc1)N1CCOCC1 | 11
19 | O=C(CNC(=O)Cc1ccccc1)NCC(=O)OCC(=O)c1ccccc1Cl | -3.44
20 | O=C(COC(=O)CSc1nnc(-c2ccc(Cl)cc2)o1)Nc1cc(Cl)ccc1Cl | -11.4
21 | OCCC1CN(Cc2ccn[nH]2)CCN1Cc1ccc(F)c(F)c1 (centres unmarked) | 9.54
22 | COCCCNC(=S)N(Cc1ccccc1)Cc1nc2ccccc2c(=O)[nH]1 | -10.1

Row | SMILES | hERG current change (%, negative = inhibition) at 10uM [%]
23 | CCc1ccccc1NC(=O)CSc1nnc([C@H](CCSC)NC(=O)OC(C)(C)C)o1 | -7.44
24 | Cc1ccc(NC(=S)Nc2ccc3cn[nH]c3c2)cc1C | -14.5
25 | C[C@@H](C(=O)Nc1ccccc1N1CCOCC1)N1C(=O)C2CC=CCC2C1=O (some centres unmarked) | 16.8
26 | Cc1c(C(=O)Nc2cccc3cccnc23)oc2ccccc12 | 10.5
27 | Cc1ccc(C(c2nnnn2C2CCCC2)N2CCN3CCCC3C2)cc1 (centres unmarked) | -26
28 | COc1ccc(/C=C/C(=O)OCC(=O)Nc2cccc(C(C)=O)c2)cc1 | 8.25
29 | COc1ccc(CC(=O)NNC(=S)Nc2ccccc2)cc1Cl | 8.44
30 | CCOC(=O)CSc1nnc(Cn2nnc3ccccc32)n1-c1ccc(F)cc1 | -5.72
31 | Cc1ccc(CCN2CC(C(=O)NCCC(C)C)CC2=O)cc1 (centres unmarked) | -5.98
32 | O=C(O)c1sc2cc(Cl)ccc2c1Cl | 7.92
33 | COc1cc(/C=N/NC(=O)c2ccc3c(c2)OCCO3)c(Br)c(Br)c1O | 10.8
34 | Cc1ccccc1COc1ccc(/C=N/NC(=O)c2nnn(-c3nonc3N)c2CN2CCC(C)CC2)cc1 | 7.92
35 | CCOc1ccc(N(CC)C(=O)COc2cc(=O)n(CC)c3ccccc23)cc1 | -16.1
36 | O=C(NCCCN1CCOCC1)c1ccc(Br)s1 | -6.05
37 | CC1CC(C)(C)OC(C[N+]2(C)CCCCC2)O1.[I-] (centres unmarked) | 23.7
38 | O=c1c2ccccc2nc2n1C(CBr)CS2 (centres unmarked) | 15.6
39 | O=C(Nn1c(O)c(C=C2N=c3ccccc3=N2)sc1=S)c1cccc(Cl)c1 | 3.39
40 | CC(CCc1ccccc1)NC(=O)CSc1cccc[n+]1[O-] (centres unmarked) | 16.8
41 | COC(=O)c1ccc(NC(=O)COc2ccc(N(C)S(=O)(=O)c3ccc(C)cc3)cc2)cc1 | -11.1
42 | CC/C(=C\C(=O)c1cccnc1)Nc1ccc(C)c(C)c1 | -2.24
43 | CCOC(=O)c1ccc2c(c1)N(CC(=O)N1CCCC1)C(=O)C(C)(C)O2 | -6.15
44 | COc1ccc(Cl)c2sc(N3CCN(C(=O)c4ccco4)CC3)nc12 | -11
